Experimental data published in paper PMC10217940.
These are yes or no findings as the source states them, for the method shown. For some assays here: In cells and extracts the contact can be indirect. Some binding calls cover weakened binding; strength is not graded here. Tags and fused reporters may be left off the sequences shown.

Protein sequences, listed by entry. Tags and fused reporters are not part of them.
UniProt O04294: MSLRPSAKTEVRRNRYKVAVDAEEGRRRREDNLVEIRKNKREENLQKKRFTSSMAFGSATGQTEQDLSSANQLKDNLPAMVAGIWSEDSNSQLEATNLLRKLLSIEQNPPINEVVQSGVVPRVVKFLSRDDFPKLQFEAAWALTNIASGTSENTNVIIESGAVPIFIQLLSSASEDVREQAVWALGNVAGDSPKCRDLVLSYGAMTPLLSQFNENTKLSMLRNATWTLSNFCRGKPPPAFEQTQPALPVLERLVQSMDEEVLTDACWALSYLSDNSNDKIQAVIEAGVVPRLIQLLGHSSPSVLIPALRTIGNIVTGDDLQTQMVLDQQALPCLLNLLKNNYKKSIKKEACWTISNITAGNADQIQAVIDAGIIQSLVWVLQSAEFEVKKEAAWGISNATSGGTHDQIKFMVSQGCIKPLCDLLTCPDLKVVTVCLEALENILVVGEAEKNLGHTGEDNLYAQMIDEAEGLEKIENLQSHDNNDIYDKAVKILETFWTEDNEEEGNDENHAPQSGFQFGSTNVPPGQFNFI

T1: IMPα5, yeast two-hybrid fusion (Arabidopsis) (UniProt Q9FJ09)
T1 sequence: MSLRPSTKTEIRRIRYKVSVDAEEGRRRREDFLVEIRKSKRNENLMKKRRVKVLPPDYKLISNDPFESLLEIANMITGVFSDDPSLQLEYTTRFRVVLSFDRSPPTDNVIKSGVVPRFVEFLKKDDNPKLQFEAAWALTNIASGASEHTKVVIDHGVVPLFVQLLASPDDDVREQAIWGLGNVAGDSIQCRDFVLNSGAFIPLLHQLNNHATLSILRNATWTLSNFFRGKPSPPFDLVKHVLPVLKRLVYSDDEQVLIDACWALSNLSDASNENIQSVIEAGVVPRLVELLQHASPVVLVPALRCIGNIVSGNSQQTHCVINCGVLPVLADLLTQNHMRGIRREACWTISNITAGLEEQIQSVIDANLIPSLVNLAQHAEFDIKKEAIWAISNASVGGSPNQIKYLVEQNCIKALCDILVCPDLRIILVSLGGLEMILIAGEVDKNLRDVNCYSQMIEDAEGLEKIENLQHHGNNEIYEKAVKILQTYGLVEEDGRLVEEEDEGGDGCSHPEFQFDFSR

T2: IMPα7, yeast two-hybrid fusion (Arabidopsis) (UniProt Q9M9X7)
T2 sequence: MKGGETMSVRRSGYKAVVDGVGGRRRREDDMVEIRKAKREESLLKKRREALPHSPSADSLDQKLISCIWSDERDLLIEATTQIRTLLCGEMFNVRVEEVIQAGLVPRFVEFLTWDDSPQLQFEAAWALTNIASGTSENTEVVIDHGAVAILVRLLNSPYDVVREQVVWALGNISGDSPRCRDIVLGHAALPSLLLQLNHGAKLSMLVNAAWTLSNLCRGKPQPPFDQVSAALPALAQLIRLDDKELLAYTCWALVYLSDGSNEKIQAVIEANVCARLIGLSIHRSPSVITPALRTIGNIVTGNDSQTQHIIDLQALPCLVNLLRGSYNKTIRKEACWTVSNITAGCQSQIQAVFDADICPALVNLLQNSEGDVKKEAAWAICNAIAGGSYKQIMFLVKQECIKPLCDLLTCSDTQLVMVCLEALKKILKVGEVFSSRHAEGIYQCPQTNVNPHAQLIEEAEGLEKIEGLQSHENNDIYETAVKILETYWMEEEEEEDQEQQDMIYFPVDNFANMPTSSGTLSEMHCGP

T3: Importin β1 (IMPβ1), yeast two-hybrid fusion (Arabidopsis) (UniProt Q9FJD4)
T3 sequence: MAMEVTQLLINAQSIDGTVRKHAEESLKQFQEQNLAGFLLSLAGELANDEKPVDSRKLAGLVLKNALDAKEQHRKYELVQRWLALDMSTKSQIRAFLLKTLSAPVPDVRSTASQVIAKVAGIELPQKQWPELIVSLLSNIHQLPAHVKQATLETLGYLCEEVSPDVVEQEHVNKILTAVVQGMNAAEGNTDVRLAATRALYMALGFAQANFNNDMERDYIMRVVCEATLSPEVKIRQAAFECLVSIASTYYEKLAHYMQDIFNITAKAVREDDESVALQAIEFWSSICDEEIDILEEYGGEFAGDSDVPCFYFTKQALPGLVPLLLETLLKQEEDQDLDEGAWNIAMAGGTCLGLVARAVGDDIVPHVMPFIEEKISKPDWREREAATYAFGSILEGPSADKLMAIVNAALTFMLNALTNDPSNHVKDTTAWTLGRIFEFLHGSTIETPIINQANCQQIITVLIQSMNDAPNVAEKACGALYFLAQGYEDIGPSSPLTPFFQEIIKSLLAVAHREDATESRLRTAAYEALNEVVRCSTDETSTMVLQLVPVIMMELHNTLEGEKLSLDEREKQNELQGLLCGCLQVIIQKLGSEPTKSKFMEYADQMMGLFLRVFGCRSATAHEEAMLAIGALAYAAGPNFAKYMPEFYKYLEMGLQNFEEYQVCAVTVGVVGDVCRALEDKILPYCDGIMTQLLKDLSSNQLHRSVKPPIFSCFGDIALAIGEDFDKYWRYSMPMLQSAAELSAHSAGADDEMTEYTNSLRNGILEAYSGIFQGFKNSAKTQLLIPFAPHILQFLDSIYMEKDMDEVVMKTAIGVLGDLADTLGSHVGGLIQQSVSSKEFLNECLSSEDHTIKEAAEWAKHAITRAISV

T4: IMPβ1:YFP^N fusion protein (Arabidopsis) (UniProt Q9FJD4)
T4 sequence: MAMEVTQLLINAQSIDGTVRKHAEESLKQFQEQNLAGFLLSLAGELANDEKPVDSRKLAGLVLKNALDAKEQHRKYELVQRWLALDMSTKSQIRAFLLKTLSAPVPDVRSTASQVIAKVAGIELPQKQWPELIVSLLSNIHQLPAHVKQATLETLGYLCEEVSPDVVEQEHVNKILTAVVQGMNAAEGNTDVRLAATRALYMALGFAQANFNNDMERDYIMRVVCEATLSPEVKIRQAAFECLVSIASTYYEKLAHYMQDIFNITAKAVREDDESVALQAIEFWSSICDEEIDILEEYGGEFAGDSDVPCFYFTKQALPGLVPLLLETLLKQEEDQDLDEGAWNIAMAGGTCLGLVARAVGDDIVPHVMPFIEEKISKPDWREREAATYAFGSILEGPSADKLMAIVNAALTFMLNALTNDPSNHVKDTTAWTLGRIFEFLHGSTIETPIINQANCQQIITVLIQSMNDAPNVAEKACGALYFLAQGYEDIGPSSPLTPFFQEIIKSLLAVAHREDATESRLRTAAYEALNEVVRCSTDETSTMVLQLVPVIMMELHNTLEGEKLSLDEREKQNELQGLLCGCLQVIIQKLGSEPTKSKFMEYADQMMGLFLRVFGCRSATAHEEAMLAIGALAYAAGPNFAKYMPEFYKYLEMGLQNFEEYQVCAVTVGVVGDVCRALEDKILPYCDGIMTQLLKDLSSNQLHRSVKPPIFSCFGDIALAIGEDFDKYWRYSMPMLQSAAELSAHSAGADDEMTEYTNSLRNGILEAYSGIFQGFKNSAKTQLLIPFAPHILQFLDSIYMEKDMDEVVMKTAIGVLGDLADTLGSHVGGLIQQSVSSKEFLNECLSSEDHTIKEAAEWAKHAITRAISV

B1: EIN2C (EIN2^454–1294), yeast two-hybrid fusion (domain or fragment, UniProt Q9S814 454-1294)
chain: LWLAATPLKSASNRAEAQIWNMDAQNALSYPSVQEEEIERTETRRNEDESIVRLESRVKDQLDTTSVTSSVYDLPENILMTDQEIRSSPPEERELDVKYSTSQVSSLKEDSDVKEQSVLQSTVVNEVSDKDLIVETKMAKIEPMSPVEKIVSMENNSKFIEKDVEGVSWETEEATKAAPTSNFTVGSDGPPSFRSLSGEGGSGTGSLSRLQGLGRAARRHLSAILDEFWGHLYDFHGQLVAEARAKKLDQLFGTDQKSASSMKADSFGKDISSGYCMSPTAKGMDSQMTSSLYDSLKQQRTPGSIDSLYGLQRGSSPSPLVNRMQMLGAYGNTTNNNNAYELSERRYSSLRAPSSSEGWEHQQPATVHGYQMKSYVDNLAKERLEALQSRGEIPTSRSMALGTLSYTQQLALALKQKSQNGLTPGPAPGFENFAGSRSISRQSERSYYGVPSSGNTDTVGAAVANEKKYSSMPDISGLSMSARNMHLPNNKSGYWDPSSGGGGYGASYGRLSNESSLYSNLGSRVGVPSTYDDISQSRGGYRDAYSLPQSATTGTGSLWSRQPFEQFGVAERNGAVGEELRNRSNPINIDNNASSNVDAEAKLLQSFRHCILKLIKLEGSEWLFGQSDGVDEELIDRVAAREKFIYEAEAREINQVGHMGEPLISSVPNCGDGCVWRADLIVSFGVWCIHRVLDLSLMESRPELWGKYTYVLNRLQGVIDPAFSKLRTPMTPCFCLQIPASHQRASPTSANGMLPPAAKPAKGKCTTAVTLLDLIKDVEMAISCRKGRTGTAAGDVAFPKGKENLASVLKRYKRRLSNKPVGMNQDGPGSRKNVTAYGSLG
B2: EIN2C:YFP^C fusion protein (domain or fragment, UniProt Q9S814 454-1294)
chain: LWLAATPLKSASNRAEAQIWNMDAQNALSYPSVQEEEIERTETRRNEDESIVRLESRVKDQLDTTSVTSSVYDLPENILMTDQEIRSSPPEERELDVKYSTSQVSSLKEDSDVKEQSVLQSTVVNEVSDKDLIVETKMAKIEPMSPVEKIVSMENNSKFIEKDVEGVSWETEEATKAAPTSNFTVGSDGPPSFRSLSGEGGSGTGSLSRLQGLGRAARRHLSAILDEFWGHLYDFHGQLVAEARAKKLDQLFGTDQKSASSMKADSFGKDISSGYCMSPTAKGMDSQMTSSLYDSLKQQRTPGSIDSLYGLQRGSSPSPLVNRMQMLGAYGNTTNNNNAYELSERRYSSLRAPSSSEGWEHQQPATVHGYQMKSYVDNLAKERLEALQSRGEIPTSRSMALGTLSYTQQLALALKQKSQNGLTPGPAPGFENFAGSRSISRQSERSYYGVPSSGNTDTVGAAVANEKKYSSMPDISGLSMSARNMHLPNNKSGYWDPSSGGGGYGASYGRLSNESSLYSNLGSRVGVPSTYDDISQSRGGYRDAYSLPQSATTGTGSLWSRQPFEQFGVAERNGAVGEELRNRSNPINIDNNASSNVDAEAKLLQSFRHCILKLIKLEGSEWLFGQSDGVDEELIDRVAAREKFIYEAEAREINQVGHMGEPLISSVPNCGDGCVWRADLIVSFGVWCIHRVLDLSLMESRPELWGKYTYVLNRLQGVIDPAFSKLRTPMTPCFCLQIPASHQRASPTSANGMLPPAAKPAKGKCTTAVTLLDLIKDVEMAISCRKGRTGTAAGDVAFPKGKENLASVLKRYKRRLSNKPVGMNQDGPGSRKNVTAYGSLG

Legend:
[1] = target: IMPα3, yeast two-hybrid fusion (Arabidopsis) (UniProt O04294); test: two-hybrid; split-ubiquitin-based yeast two-hybrid (SUB-Y2H, Dualsystems); IMPs in the pGADT7 bait vector, EIN2C in the pGBKT7 prey vector
[2] = target: T1, IMPα5, yeast two-hybrid fusion (Arabidopsis); test: as above
[3] = target: T2, IMPα7, yeast two-hybrid fusion (Arabidopsis); test: as above
[4] = target: T3, Importin β1 (IMPβ1), yeast two-hybrid fusion (Arabidopsis); test: as above
[5] = target: T4, IMPβ1:YFP^N fusion protein (Arabidopsis); test: split reporter; YFP BiFC in Nicotiana benthamiana leaves, confocal laser-scanning microscopy; IMPβ1 fused to YFP^N, EIN2C or EIN2N fused to YFP^C

Row | Binder | binding [1] | binding [2] | binding [3] | binding [4] | binding [5]
1 | B1 | no binding | no binding | no binding | binds | –
2 | B2 | – | – | – | – | binds
